Assay results published in the supplement of paper PMC5919970.
Structures can show the parent of a compound that is named as a salt. Whole data set: some 2,000 compounds, median “fractional viability relative to vehicle” near 0.92, cut for the lowest 2% near 0.11. Some of the results follow.

System: TYKNU
Assay: fractional viability relative to vehicle; TYKNU is a high-grade serous ovarian cancer line; higher = less growth inhibition
Conditions: 72 h, genotype: OPA1 knockout (sgOPA1 #2)
In short: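 TYKNU control cells or lentiCRISPRv2 knockout derivatives were seeded at 500 cells per well into drug-stamped 384-well plates holding a ~2100-compound library at 2 or 10 μM, in duplicate. Cells were grown at 37 °C in 5% CO2 in RPMI 1640 with 10% FBS, and drug treatment lasted 72 h. Viability was read by Cell Titer Glo luminescence. Duplicate treatment wells were averaged and normalised to duplicate control wells from the same plate position.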

## OC(CNCC(O)C1CCc2cc(F)ccc2O1)C1CCc2cc(F)ccc2O1 (stereo not given) [Nebivolol]
2uM
  fractional viability: 0.973
10uM
  fractional viability: 0.521

## O=C(CCc1ccc(O)cc1)c1c(O)cc(O)cc1O [Phloretin]
2uM
  fractional viability: 1.02
10uM
  fractional viability: 0.933

## CC[C@H](C)[C@H](N)C1=N[C@H](C(=O)N[C@@H](CC(C)C)C(=O)N[C@H](CCC(=O)O)C(=O)N[C@H](C(=O)N[C@H]2CCCCNC(=O)[C@H](CC(N)=O)NC(=O)[C@@H](CC(=O)O)NC(=O)[C@H](Cc3cnc[nH]3)NC(=O)[C@@H](Cc3ccccc3)NC(=O)[C@H]([C@@H](C)CC)NC(=O)[C@@H](CCCN)NC2=O)[C@@H](C)CC)CS1 [Bacitracin]
2uM
  fractional viability: 0.798
10uM
  fractional viability: 0.806

## C=CCNC(N)=S [Allylthiourea]
2uM
  fractional viability: 0.993
10uM
  fractional viability: 0.892

## CNC(=O)c1cccc(-c2ccc3c(N4CCOC[C@@H]4C)nc(N4CCOC[C@@H]4C)nc3n2)c1
2uM
  fractional viability: 0.333
10uM
  fractional viability: 0.49

## CN(C)CCOC(C)(c1ccccc1)c1ccccn1 (stereo not given) [Doxylamine Succinate]
2uM
  fractional viability: 1.07
10uM
  fractional viability: 0.882

## COc1cccc(-c2cc(=O)c3ccccc3o2)c1N
2uM
  fractional viability: 1.42
10uM
  fractional viability: 1.36

## C[C@@H](O)[C@H]1C(=O)N2C(C(=O)O)=C(S[C@@H]3CN[C@H](CNS(N)(=O)=O)C3)[C@H](C)[C@H]12 [Doripenem Hydrate]
2uM
  fractional viability: 0.934
10uM
  fractional viability: 1.08

## COc1cccc(-n2c(=O)[nH]c3cc(Cl)n(-c4ccc(-c5cccc(OC)c5O)cc4)c3c2=O)c1
2uM
  fractional viability: 0.827
10uM
  fractional viability: 0.807

## CC(C)(C#N)c1cc(Cn2cncn2)cc(C(C)(C)C#N)c1 [Anastrozole]
2uM
  fractional viability: 1.26
10uM
  fractional viability: 0.942

## COc1cc2nccc(Oc3ccc(NC(=O)Nc4cc(C)on4)c(Cl)c3)c2cc1OC [Tivozanib (AV-951)]
2uM
  fractional viability: 1.54
10uM
  fractional viability: 1.23

## CCc1cc(Nc2nccc(-c3c(-c4ccc(OC)c(C(=O)Nc5c(F)cccc5F)c4)nc4ccccn34)n2)c(OC)cc1N1CCC(N2CCN(S(C)(=O)=O)CC2)CC1
2uM
  fractional viability: 1.15
10uM
  fractional viability: 0.975

## Nc1ccn([C@H]2CC[C@@H](CO)O2)c(=O)n1 [Zalcitabine]
2uM
  fractional viability: 1.22
10uM
  fractional viability: 0.908

## CNC(=O)c1cc(Oc2ccc(NC(=O)Nc3cc(C(C)(C)C)nn3-c3ccc4ncccc4c3)c(F)c2)ccn1 [DCC-2036 (Rebastinib)]
2uM
  fractional viability: 1.15
10uM
  fractional viability: 0.406

## OC[C@H]1O[C@H](O[C@]2(CCl)O[C@H](CCl)[C@@H](O)[C@@H]2O)[C@H](O)[C@@H](O)[C@H]1Cl [Sucralose]
2uM
  fractional viability: 0.873
10uM
  fractional viability: 0.764

## CC(C)C[C@H](NC(=O)[C@@H](NC(=O)c1cccc(-c2ccccc2)n1)[C@@H](C)O)B(O)O
2uM
  fractional viability: 0.52
10uM
  fractional viability: 0.306

## COc1ccc2c(c1)c(CC(=O)O)c(C)n2C(=O)c1ccc(Cl)cc1 [Indomethacin]
2uM
  fractional viability: 1.03
10uM
  fractional viability: 0.965

## CN1CCC(=C2c3ccccc3CCc3cccnc32)CC1 [Azatadine dimaleate]
2uM
  fractional viability: 0.476
10uM
  fractional viability: 0.356

## Nc1nc2ccc(OC(F)(F)F)cc2s1 [Riluzole]
2uM
  fractional viability: 1.2
10uM
  fractional viability: 1.02

## C[C@]1(O)C[C@@H](c2nc(-c3ccc4ccc(-c5ccccc5)nc4c3)c3c(N)nccn32)C1 [OSI-906 (Linsitinib)]
2uM
  fractional viability: 1.06
10uM
  fractional viability: 0.889

## O=C(C1CCCCC1)N1CC(=O)N2CCc3ccccc3C2C1 (stereo not given) [Praziquantel]
2uM
  fractional viability: 0.948
10uM
  fractional viability: 0.799

## C[C@@H]1CCO[C@H]2Cn3cc(C(=O)NCc4ccc(F)cc4F)c(=O)c(O)c3C(=O)N12
2uM
  fractional viability: 0.952
10uM
  fractional viability: 0.964

## O=C(O)c1cc(/N=N/c2ccc(O)c(C(=O)O)c2)ccc1O [Olsalazine Sodium]
2uM
  fractional viability: 1.16
10uM
  fractional viability: 0.888

## O=C(Nc1ccccc1-c1cn2c(CN3CCNCC3)csc2n1)c1cnc2ccccc2n1
2uM
  fractional viability: 1.19
10uM
  fractional viability: 0.0331

## CC(C)(C)NCC(O)COc1cccc2c1CCC(=O)N2 (stereo not given) [Carteolol HCl]
2uM
  fractional viability: 0.973
10uM
  fractional viability: 0.93

## CNC(=O)c1cc(Oc2ccc(NC(=O)Nc3ccc(Cl)c(C(F)(F)F)c3)c(F)c2)ccn1 [Regorafenib (BAY 73-4506)]
2uM
  fractional viability: 0.986
10uM
  fractional viability: 0.64

## CN(C)CC(=O)Nc1ccc2[nH]c(=O)c3ccccc3c2c1
2uM
  fractional viability: 0.837
10uM
  fractional viability: 0.964

## Cc1ccccc1C(=O)Nc1ccc(C(=O)N2CCCC(O)c3cc(Cl)ccc32)c(C)c1 (stereo not given) [Tolvaptan]
2uM
  fractional viability: 1.13
10uM
  fractional viability: 0.983

## CN(C)C(=O)C(CCN1CCC(O)(c2ccc(Cl)cc2)CC1)(c1ccccc1)c1ccccc1 [Loperamide HCl]
2uM
  fractional viability: 0.929
10uM
  fractional viability: 0.61

## CC(C(=O)O)c1ccc2c(c1)[nH]c1ccc(Cl)cc12 (stereo not given) [Carprofen]
2uM
  fractional viability: 0.864
10uM
  fractional viability: 0.992

## CC(NC(=O)C(Cc1ccccc1)NC(=O)OCc1ccccc1)C(=O)CF (stereo not given)
2uM
  fractional viability: 0.845
10uM
  fractional viability: 0.801

## C=CCc1cccc(/C=N/NC(=O)CN2CCN(Cc3ccccc3)CC2)c1O
2uM
  fractional viability: 0.866
10uM
  fractional viability: 0.713

## O=C1c2c(O)cccc2C([C@@H]2O[C@H](CO)[C@@H](O)[C@H](O)[C@H]2O)c2cc(CO)cc(O)c21 (stereo not given in full) [Aloin]
2uM
  fractional viability: 0.905
10uM
  fractional viability: 0.843

## O=C(Nc1cccc(C(F)(F)F)c1)Nc1cc(S(=O)(=O)NC2CC2)ccc1-c1ccsc1
2uM
  fractional viability: 0.918
10uM
  fractional viability: 0.969

## C[C@H]1O[C@@H](O[C@H]2[C@@H](O)C[C@H](O[C@H]3[C@@H](O)C[C@H](O[C@H]4CC[C@@]5(C)[C@H](CC[C@@H]6[C@@H]5C[C@@H](O)[C@]5(C)[C@@H](C7=CC(=O)OC7)CC[C@]65O)C4)O[C@@H]3C)O[C@@H]2C)C[C@H](O)[C@@H]1O [Digoxin]
2uM
  fractional viability: 0.141
10uM
  fractional viability: 0.0738

## Cc1c(OCC(F)(F)F)ccnc1C[S@@+]([O-])c1nc2ccccc2[nH]1 [Dexlansoprazole]
2uM
  fractional viability: 1
10uM
  fractional viability: 1.05

## CC[C@H]1OC(=O)[C@H](C)[C@@H](O[C@H]2C[C@@](C)(OC)[C@@H](O)[C@H](C)O2)[C@H](C)[C@@H](O[C@@H]2O[C@H](C)C[C@H](N(C)C)[C@H]2O)[C@](C)(O)C[C@@H](C)C(=O)[C@H](C)[C@H]2OC(=O)O[C@@]21C [Erythromycin Cyclocarbonate]
2uM
  fractional viability: 0.834
10uM
  fractional viability: 0.883

## NC(=O)c1cn(Cc2c(F)cccc2F)nn1 [Rufinamide]
2uM
  fractional viability: 1.29
10uM
  fractional viability: 1.15

## Cc1cc(O)c2c(c1)C(=O)c1cccc(O)c1C2=O [Chrysophanic Acid]
2uM
  fractional viability: 0.922
10uM
  fractional viability: 0.952

## CC(C(=O)O)c1ccc(-c2ccccc2)c(F)c1 (stereo not given) [Flurbiprofen]
2uM
  fractional viability: 1.16
10uM
  fractional viability: 1.06

## CN1[C@@H]2CC[C@H]1C[C@@H](OC(=O)c1c[nH]c3ccccc13)C2 [Tropisetron]
2uM
  fractional viability: 1.12
10uM
  fractional viability: 1.02

## Cc1cccc(C)c1OCC(C)N (stereo not given) [Mexiletine HCl]
2uM
  fractional viability: 0.885
10uM
  fractional viability: 0.881

## Nc1nc(CC(=O)Nc2ccc(CCNC[C@H](O)c3ccccc3)cc2)cs1 [Mirabegron]
2uM
  fractional viability: 1.01
10uM
  fractional viability: 0.924

## CC[C@]1(O)C[C@H]2CN(CCc3c([nH]c4ccccc34)[C@@](C(=O)OC)(c3cc4c(cc3OC)N(C=O)[C@H]3[C@@](O)(C(=O)OC)[C@H](OC(C)=O)[C@]5(CC)C=CCN6CC[C@]43[C@@H]65)C2)C1 [Vincristine sulfate]
2uM
  fractional viability: 0.579
10uM
  fractional viability: 0.343

## COc1ccccc1OCC(O)CO (stereo not given) [Guaifenesin]
2uM
  fractional viability: 1.1
10uM
  fractional viability: 0.949

## Cc1cc(=O)[nH]c(=S)[nH]1 [Methylthiouracil]
2uM
  fractional viability: 1.07
10uM
  fractional viability: 1.08

## CC(=O)[C@H]1CC[C@H]2[C@@H]3C=CC4=CC(=O)CC[C@@]4(C)[C@@H]3CC[C@]12C [Dydrogesterone]
2uM
  fractional viability: 0.914
10uM
  fractional viability: 1.01

## O=S(=O)(NCCSSCCNS(=O)(=O)c1cc(Cl)ccc1Cl)c1cc(Cl)ccc1Cl
2uM
  fractional viability: 0.809
10uM
  fractional viability: 0.491

## Cc1cc(/C=C/C#N)cc(C)c1Nc1ccnc(Nc2ccc(C#N)cc2)n1 [Rilpivirine]
2uM
  fractional viability: 0.943
10uM
  fractional viability: 0.608

## CCOc1cc2ncc(C#N)c(Nc3ccc(F)c(Cl)c3)c2cc1NC(=O)/C=C/CN(C)C [Pelitinib (EKB-569)]
2uM
  fractional viability: 0.856
10uM
  fractional viability: 0.14

## Cc1c(N(C)C)c(=O)n(-c2ccccc2)n1C [Amidopyrine]
2uM
  fractional viability: 0.876
10uM
  fractional viability: 0.967

## CCN(CC)CCNC(=O)c1c(C)[nH]c(/C=C2\C(=O)Nc3ccc(F)cc32)c1C [Sunitinib]
2uM
  fractional viability: 0.713
10uM
  fractional viability: 0.148

## CCN(CC)CCNC(=O)c1c(C)[nH]c(/C=C2\C(=O)Nc3ccc(F)cc32)c1C [Sunitinib Malate]
2uM
  fractional viability: 0.862
10uM
  fractional viability: 0.5

## COc1ccc(/C=C/C(=O)Nc2ccccc2C(=O)O)cc1OC [Tranilast]
2uM
  fractional viability: 1.12
10uM
  fractional viability: 1.09

## CCOC(=O)C1=C(COCCN)NC(C)=C(C(=O)OC)C1c1ccccc1Cl (stereo not given) [Amlodipine]
2uM
  fractional viability: 1.13
10uM
  fractional viability: 0.88

## Cc1ncc(CCCN(C)C)cc1Nc1ncc2c(n1)-c1ccc(C(F)(F)F)cc1NC(=S)C2
2uM
  fractional viability: 0.693
10uM
  fractional viability: 0.572

## Oc1ccc(/C=C/c2cc(O)cc(O)c2)cc1 [Resveratrol]
2uM
  fractional viability: 1.03
10uM
  fractional viability: 0.976

## CC(=O)c1cc2c(o1)C(=O)c1ccccc1C2=O [Napabucasin]
2uM
  fractional viability: 0.0542
10uM
  fractional viability: 0.0318

## CCN(CC)CC(=O)Nc1c(C)cccc1C [Lidocaine]
2uM
  fractional viability: 1.06
10uM
  fractional viability: 0.994

## c1ccc2c(CC3=NCCN3)cccc2c1 [Naphazoline HCl]
2uM
  fractional viability: 1.06
10uM
  fractional viability: 0.835

## CC(=O)OCC(=O)[C@@]12OC(C)(C)O[C@@H]1C[C@H]1[C@@H]3C[C@H](F)C4=CC(=O)C=C[C@]4(C)[C@@]3(F)[C@@H](O)C[C@@]12C [Fluocinonide]
2uM
  fractional viability: 1.1
10uM
  fractional viability: 0.882

## CC(C=CC(=O)NO)=CC(C)C(=O)c1ccc(N(C)C)cc1 (stereo not given) [Trichostatin A (TSA)]
2uM
  fractional viability: 0.335
10uM
  fractional viability: 0.298

## CN(c1ccccc1CNc1nc(Nc2ccc3c(c2)CC(=O)N3)ncc1C(F)(F)F)S(C)(=O)=O
2uM
  fractional viability: 0.728
10uM
  fractional viability: 0.523

## Cc1ccc(S(=O)(=O)Cc2nc(-c3ccc(C(=O)NCc4cccnc4)cc3)oc2C)cc1
2uM
  fractional viability: 0.279
10uM
  fractional viability: 0.254

## CC/C(=C(\c1ccc(O)cc1)c1ccc(OCCNC)cc1)c1ccccc1 [Endoxifen HCl]
2uM
  fractional viability: 0.982
10uM
  fractional viability: 0.482
